The campaign covered roughly 39,000 compounds. About 220 (0.56%) showed activity. The list shows a part of the results.
System: Escherichia coli K-12 BW25113
Assay: relative growth (OD600 normalised to plate interquartile mean) (fraction); higher = less growth inhibition, active = 0.2 or less
Settings: 50 µM; LB; incubation time: overnight (16-24 h)
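Further: static incubation at 37 °C against the wild-type strain, values averaged over two biological replicates.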

| Structure (SMILES) | relative growth |
| --- | --- |
| CC(C)NC(=O)Nc1ccc2c(c1)C(=O)N(C)[C@H]1CC[C@H](CC(=O)NCc3ccc(F)cc3)O[C@H]1CO2 | inactive: 0.984 |
| N=C(N)/N=C(\N)N1CCOCC1 | inactive: 0.999 |
| COc1ccc(NC(=O)N(C)C[C@@H]2Oc3ccc(NC(=O)Nc4ccc(C(F)(F)F)cc4)cc3CC(=O)N([C@H](C)CO)C[C@H]2C)cc1 | inactive: 1.01 |
| O=C(C[C@H]1C=C[C@@H](NC(=O)Cc2ccccn2)[C@@H](CO)O1)NCCCN1CCOCC1 | inactive: 0.987 |
| C/C=C/c1ccc2c(c1)O[C@@H](CN(C)C(=O)c1ccc3c(c1)OCO3)[C@@H](C)CN([C@H](C)CO)S2(=O)=O | inactive: 1.01 |
| C[C@H]1CN([C@@H](C)CO)C(=O)c2cccc(NC(=O)c3ccncc3)c2O[C@@H]1CN(C)Cc1ccc2c(c1)OCO2 | inactive: 0.991 |
| C[C@H]1CN([C@@H](C)CO)C(=O)Cc2cc(NC(=O)CCCN(C)C)ccc2O[C@@H]1CN(C)Cc1ccc(Oc2ccccc2)cc1 | inactive: 1.06 |
| Cc1cc(NC(=O)CSc2nnc[nH]2)no1 | inactive: 0.989 |
| O=C1CN(S(=O)(=O)Cc2ccccc2)C[C@H]2[C@@H](c3ccc(C#Cc4cccc(F)c4)cc3)[C@@H](CO)N12 | inactive: 1.02 |
| C[C@H](CO)N1C[C@H](C)[C@@H](CN(C)S(=O)(=O)c2ccc(Cl)cc2)OCCCC[C@H](C)Oc2ccc(NC(=O)Cc3ccccc3)cc2C1=O | inactive: 0.995 |
| C[C@@H]1CCCCO[C@@H](CN(C)Cc2ccncc2)[C@H](C)CN([C@@H](C)CO)C(=O)c2cc(NC(=O)Nc3ccccc3)ccc2O1 | inactive: 0.982 |
| Nc1ccc(S(=O)(=O)Nc2ccnn2-c2ccccc2)cc1 | inactive: 0.856 |
| C[C@@H]1CN([C@@H](C)CO)C(=O)Cc2cc(NS(=O)(=O)c3cccs3)ccc2O[C@H]1CN(C)Cc1ccncc1 | inactive: 0.968 |
| C[C@H](CO)N1C[C@H](C)[C@@H](CN(C)Cc2ccc(Cl)c(Cl)c2)Oc2ccc(NC(=O)Nc3ccc(C(F)(F)F)cc3)cc2C1=O | inactive: 1 |
| C[C@@H]1CN([C@@H](C)CO)S(=O)(=O)c2ccc(Br)cc2O[C@H]1CN(C)C(=O)c1cnccn1 | inactive: 0.983 |
| CC(C)NC(=O)Nc1cccc2c1O[C@H](CN(C)Cc1ccc(-c3ccccc3)cc1)[C@@H](C)CN([C@@H](C)CO)C2=O | inactive: 0.997 |
| Cc1noc(C)c1S(=O)(=O)Nc1ccc2c(c1)CC(=O)N([C@H](C)CO)C[C@@H](C)[C@@H](CN(C)Cc1ccccc1)O2 | inactive: 1.01 |
| O=C(C[C@H]1CC[C@@H]2[C@H](COC[C@@H](O)CN2C(=O)c2cnccn2)O1)N1CCN(c2ccccc2)CC1 | inactive: 1.01 |
| COc1ccc(S(=O)(=O)N(C)C[C@@H]2Oc3ccc(NS(=O)(=O)c4c(C)noc4C)cc3C(=O)N([C@H](C)CO)C[C@@H]2C)cc1 | inactive: 0.996 |
| C[C@@H]1CCCCO[C@@H](CN(C)Cc2ccccc2)[C@@H](C)CN([C@@H](C)CO)C(=O)c2cc(NC(=O)NC3CCCCC3)ccc2O1 | inactive: 1 |

| Structure (SMILES) | relative growth |
| --- | --- |
| C[N+](C)(C)CCCCCCNC(=O)[C@@H]1C[C@@H]2C(=O)N[C@@H](CCCC[N+](C)(C)C)C(=O)N2[C@@H]1c1ccc(O)cc1 | inactive: 1.03 |
| COc1ccc(NC(=O)N(C)C[C@H]2OCCCC[C@@H](C)Oc3ccc(NS(=O)(=O)c4ccccc4)cc3C(=O)N([C@@H](C)CO)C[C@H]2C)cc1 | inactive: 1.04 |
| C/C(=C\C(=O)OCCCCCCCCC(=O)O)C[C@@H]1OC[C@H](C[C@@H]2O[C@H]2[C@@H](C)[C@H](C)O)[C@@H](O)[C@H]1O | active: 0.166 |
| C[C@H]1CN([C@@H](C)CO)C(=O)Cc2cc(NS(C)(=O)=O)ccc2O[C@H]1CN(C)S(C)(=O)=O | inactive: 0.999 |
| C[C@@H]1CN([C@H](C)CO)C(=O)c2cc(NC(=O)Nc3ccc(C(F)(F)F)cc3)ccc2O[C@H]1CN(C)S(=O)(=O)c1ccc(F)cc1 | inactive: 1.03 |
| Cc1ccc(S(=O)(=O)Nc2ccc3c(c2)C(=O)N([C@H](C)CO)C[C@H](C)[C@H](CN(C)C(=O)Nc2ccc(F)cc2)OCCCC[C@H](C)O3)cc1 | inactive: 1.04 |
| C[C@H](CO)N1C[C@H](C)[C@H](CN(C)C(=O)Nc2ccc(C(F)(F)F)cc2)Oc2c(NC(=O)C3CCCCC3)cccc2C1=O | inactive: 0.972 |
| C[C@@H]1CN([C@H](C)CO)C(=O)c2cc(Br)cnc2O[C@H]1CN(C)C(=O)Nc1ccccc1F | inactive: 0.965 |
| C[C@H](CO)N1C[C@H](C)[C@@H](CN(C)CC2CCCCC2)OCCCC[C@H](C)Oc2ccc(NC(=O)Nc3cccc4ccccc34)cc2C1=O | inactive: 0.975 |
| C[C@@H]1CN([C@@H](C)CO)C(=O)Cc2cc(NC(=O)CCC(F)(F)F)ccc2O[C@H]1CN(C)S(C)(=O)=O | inactive: 1.02 |
| COc1ccc(NC(=O)N(C)C[C@@H]2Oc3ccc(NS(C)(=O)=O)cc3C(=O)N([C@H](C)CO)C[C@@H]2C)cc1 | inactive: 1.02 |
| CC[C@@H]1OC(=O)[C@@H](C)[C@H](O[C@H]2C[C@@](C)(OC)[C@@H](O)[C@H](C)O2)[C@@H](C)[C@H](O)[C@@](C)(O[C@@H]2O[C@H](C)C[C@H](N(C)C)[C@H]2O)C[C@H](C)C(=O)[C@@H](C)[C@H](O)[C@@]1(C)O | inactive: 0.427 |
| C[C@@H]1CN([C@H](C)CO)C(=O)c2cc(NC(=O)C3CC3)ccc2O[C@H]1CN(C)S(=O)(=O)c1cn(C)cn1 | inactive: 1.05 |
| C[C@H]1CCCCO[C@H](CN(C)Cc2ccc(C(F)(F)F)cc2)[C@@H](C)CN([C@@H](C)CO)C(=O)c2cc(NC(=O)Nc3ccccc3)ccc2O1 | inactive: 0.988 |
| COc1ccc(S(=O)(=O)Nc2ccc3c(c2)CC(=O)N([C@@H](C)CO)C[C@@H](C)[C@@H](CN(C)S(C)(=O)=O)O3)cc1 | inactive: 0.988 |
| COc1ccc(NC(=O)N(C)C[C@@H]2OCCCC[C@@H](C)Oc3ccc(NC(=O)c4ccncc4)cc3C(=O)N([C@@H](C)CO)C[C@H]2C)cc1 | inactive: 1.01 |
| C=CC[C@@H](CC(=O)N(CCO)Cc1ccccc1)C(=O)NC[C@H](OC(=O)[C@H](CC=C)NC(=O)OCC1c2ccccc2-c2ccccc21)c1ccccc1 | inactive: 0.935 |
| NS(=O)(=O)c1ncn(Cc2ccccc2)n1 | inactive: 0.939 |
| CC(C)NC(=O)Nc1ccc2c(c1)C(=O)N([C@H](C)CO)C[C@@H](C)[C@H](CN(C)Cc1ccc(C(F)(F)F)cc1)OCCCC[C@H](C)O2 | inactive: 0.99 |
| COCC#Cc1cnc2c(c1)C(=O)N([C@H](C)CO)C[C@H](C)[C@@H](CN(C)C(C)=O)O2 | inactive: 0.986 |

| Structure (SMILES) | relative growth |
| --- | --- |
| O=C(NO)c1cccc(C(=O)N/N=C/[C@@H](O)[C@@H](O)[C@H](O)[C@H](O)CO)c1 | inactive: 0.98 |
| O=C(CCCCCC(=O)Nc1ccccc1O)N/N=C/C[P+](c1ccccc1)(c1ccccc1)c1ccccc1 | inactive: 1.01 |
| O=C(NCC(O)CO)c1c(I)c(C(=O)NCC(O)CO)c(I)c(N(CCO)C(=O)CO)c1I (centres undefined) | inactive: 1.1 |
| Cn1cnc(CCNC(=O)C[C@H]2CC[C@@H]3[C@H](COC[C@@H](O)CN3C(=O)C3CC3)O2)c1 | inactive: 0.96 |
| C[C@@H]1CN([C@@H](C)CO)C(=O)c2cc(NC(=O)Nc3ccc4c(c3)OCO4)ccc2O[C@H]1CN(C)C(=O)Nc1cccc2ccccc12 | inactive: 1.01 |
| C[C@H]1CN([C@@H](C)CO)C(=O)c2cc(NS(C)(=O)=O)ccc2O[C@H]1CN(C)S(=O)(=O)c1ccccc1 | inactive: 0.994 |
| Cc1noc(C)c1NC(=O)Nc1cccc2c1O[C@@H](CN(C)Cc1ccc(-c3ccccc3)cc1)[C@H](C)CN([C@@H](C)CO)C2=O | inactive: 1.01 |
| COc1ccc(S(=O)(=O)N(C)C[C@@H]2Oc3c(NC(=O)c4cnccn4)cccc3C(=O)N([C@@H](C)CO)C[C@H]2C)cc1 | inactive: 1.01 |
| C[C@H](CO)N1C[C@H](C)[C@@H](CN(C)S(=O)(=O)c2cn(C)cn2)Oc2ncc(Br)cc2C1=O | inactive: 0.937 |
| O=C(C[C@@H]1CC[C@@H]2[C@H](COC[C@@H](O)CN2S(=O)(=O)c2ccc(F)cc2)O1)NCCN1CCCCC1 | inactive: 1.02 |
| CCc1cn([C@H]2C[C@@H](O)[C@@H](CO)O2)c(=O)[nH]c1=O | inactive: 0.827 |
| COc1ccc(S(=O)(=O)N(C)C[C@H]2Oc3ccc(NS(=O)(=O)c4ccc(C)cc4)cc3C(=O)N([C@@H](C)CO)C[C@H]2C)cc1 | inactive: 1.03 |
| O=C(C[C@@H]1C[C@H]2c3cc(NC(=O)NC4CCCC4)ccc3O[C@H]2[C@H](CO)O1)NCCN1CCCCC1 | inactive: 1 |
| C[C@H](CO)N1C[C@H](C)[C@H](CN(C)Cc2ccc(Oc3ccccc3)cc2)Oc2ccc(NC(=O)Nc3ccc(F)cc3)cc2C1=O | inactive: 0.892 |
| C[C@H](CO)N1C[C@H](C)[C@H](CN(C)C(=O)Nc2ccc(C(F)(F)F)cc2)Oc2ccc(NC(=O)CCC(F)(F)F)cc2CC1=O | inactive: 0.998 |
| CC(=O)N(C)C[C@@H]1Oc2ncc(C#C[C@H](C)O)cc2C(=O)N([C@H](C)CO)C[C@@H]1C | inactive: 1.02 |
| CCn1cc(C(=O)N2CCN(C)CC2)c(=O)c2cc(S(=O)(=O)N(C)C)ccc21 | inactive: 0.974 |
| C[C@H]1CN([C@@H](C)CO)S(=O)(=O)c2ccc(C#Cc3ccccc3F)cc2O[C@H]1CN(C)C(=O)Cc1cccnc1 | inactive: 0.991 |
| CN1CCN(C(=O)C[C@H]2C[C@H]3c4cc(NS(=O)(=O)c5ccc(F)cc5)ccc4O[C@H]3[C@H](CO)O2)CC1 | inactive: 0.972 |
